# Test results as given in ChEMBL document CHEMBL4888484, “Replenishing the malaria drug discovery pipeline: Screening and hit evaluation of the MMV Hit Generation Library 1 (HGL1) against asexual blood stage Plasmodium falciparum ,using a nano luciferase reporter read-out” (2022).
# About 540 (0.36%) of roughly 150,000 compounds showed an effect of 50% or more. The list shows a part of the results.
# System: Plasmodium falciparum
# Experiment: Primary screen in NF54 nanoGlo assay, in single point, at 2uM, 72h; a lower Z score goes with more inhibition
# Type: functional, Erythrocyte
# Details: timepoint 72 hour
Structure (SMILES),% Inhibition [%],Z score
COCC1(CNc2nc(C)cc(C)n2)CCCC1,-1,0.12
CC(C)Cn1ncc(C(=O)N2CCN(C)c3ccccc32)c1C(F)F,0,-0.04
CCC1(C)CCCC1NCC(=O)NCC1CC1 (configuration not stated),-4,0.81
CCOC(=O)C1CCCN(C(C)C(=O)Nc2ccccc2-c2ccccc2)C1 (configuration not stated),-8,0.97
C[C@H](NC(=O)c1nccn1C)c1nnc(N)s1,-11,1.44
CC(C)N(Cc1ccccc1)C(=O)C1CCN(C(=O)c2ccco2)CC1,-6,1.15
CN(C(=O)OC(C)(C)C)C1CCN(CC2CCCO2)C1 (configuration not stated),-14,1.2
COc1cc(=O)n(C)cc1C(=O)NCc1ccco1,-5,0.93
CCn1ccnc1CNC(=O)N1CC[C@](C)(F)C1,-12,1.45
O=C(N[C@H]1CCCCNC1=O)c1cccc(NCc2cncs2)c1,-3,0.38
CN(CCCNCc1csnn1)c1ccccc1,-13,1.45
Cc1cccc(N2CCC(NCCOCCO)CC2)c1C,-6,1.07
Cc1oncc1CN1CCN(c2ccc(F)cc2)CC1,-5,0.84
O=C(c1cnc2cc(Cl)ccc2c1O)N1CCOCC1,-8,0.94
CC(C)Cc1ccc([C@@H](NCc2nnn(C)n2)C2CC2)cc1,-13,1.52
Cc1cccc2nc(NCC(C)(C)CS(C)(=O)=O)oc12,-9,0.92
CCn1cnnc1CNC(=O)[C@H]1CC(=O)N(C)C1,2,-0.21
CC(C)n1cnc(C(=O)Nc2nc(CN3CCCCCC3)cs2)c1,-5,0.47
C[C@@H](C(=O)N1CCN(Cc2ccc(O)cc2)CC1)N1CCN(C)CC1,-10,1.18
O=C(Nc1ccccc1)OCc1cc(-c2ccccc2Cl)on1,-2,0.29
CC(=O)N[C@H]1C[C@@H](c2cccc(O)c2)O[C@@H](C2(C)CCN(C)CC2)C1,-5,0.95
CC(C)[C@H](CNC(=O)c1cc(O)c2cccc(F)c2n1)N1CCCC1,12,-1.61

Structure (SMILES),% Inhibition [%],Z score
Cc1ccc(C)c(NC(=O)N2CC[C@H](N3CCN(C)CC3)[C@H](CCC(=O)O)C2)c1,-9,1.69
O=C(N[C@H]1CCOc2ccccc21)c1cc2c(s1)CCCC2,-1,0.13
CCO[C@H]1COC[C@@H]1Nc1ncc(C#N)c(N)n1,-2,0.43
CCN(CCO)C[C@@H]1CN(C(=O)c2cc3ccccc3cc2O)C[C@@H]1CO,-12,1.65
C[C@@H](C1CCN(C(=O)c2ccc3occc3c2)CC1)N1CCN(C)CC1,-8,1.28
Cc1ccc(Nc2[nH]nnc2C(=O)NCc2cccc(Cl)c2)cc1C,-9,1.05
O=C(CCc1ccc(F)cc1F)N1CC[C@H]2NCCC[C@]2(C(=O)O)C1,-15,2.89
COc1ccccc1CN1CCN(Cc2ccccn2)[C@H]2CS(=O)(=O)C[C@H]21,1,-0.08
O=C(Nc1ccc(-n2nn[nH]c2=O)cc1)c1ccc2cc[nH]c2c1,-50,5.9
Cc1ccc(-c2nc(CN3N=NC4C(=O)N(c5cc(C)cc(C)c5)C(=O)C43)c(C)o2)cc1 (configuration not stated),-9,0.94
CCCc1cc(C(=O)N[C@H](CO)COCc2ccccc2)[nH]n1,-7,0.87
COc1ccc(CN(C(=O)c2cnc(C3CC3)nc2)C2CCCC2)c(OC)c1,27,-2.44
COCc1noc(-c2cc(C3CC3)nc3ccccc23)n1,2,-0.34
O=C1CC[C@H](C(=O)NCc2ccc(N3CCCCC3)nc2)CN1,-15,2.43
CCCc1[nH]nc(-c2cccc(OC)c2)c1NC(=O)Nc1cc(OC)cc(OC)c1,-9,1.12
CC1CC(c2cccnc2)N(C(=O)C(O)C2CCCCC2)C1 (configuration not stated),-7,1.3
CC1(C)C2CN(C(=O)C3(C4CCC4)CCC3)CC21 (configuration not stated),-2,0.16
O=C(c1cc(-n2ccnn2)ccc1F)N1CC[C@@](O)(Cc2ccc(F)cc2)C1,-11,1.42
CC(C)c1nnc(COc2ccc(Cl)c(CO)c2)s1,-2,0.36
CCn1ncc(CN2CCN(S(=O)(=O)c3ccc(N4CCCC4=O)cc3)CC2)c1C,24,-3.52
O=C1NCCN(C(=O)c2cc(-c3ccccc3F)n[nH]2)[C@H]1c1ccc(F)cc1,-8,1
O=C([C@@H]1CCCc2[nH]cnc21)N1CC(COc2ccccc2)C1,7,-0.99

Structure (SMILES),% Inhibition [%],Z score
Cc1cc(C)c(CN(C)Cc2nc(-c3ccccn3)no2)cc1C,-11,1.83
O=C(Cc1ccccc1)Nn1cc(-c2ccc(Cl)cc2)sc1=O,4,-0.59
CCc1nnc(N2C[C@H]3CC[C@@H](C2)N(Cc2c(C)noc2C)C3=O)s1,-6,1.08
O=C(Nc1ccccc1N1CCCC1)NC1C2CCC(C2)C1CO (configuration not stated),-1,0.18
O=C(Cn1nnc2ccccc21)Nc1cccc(C(=O)NC2CC2)c1,-7,1.29
N#Cc1cccc(NC(=O)N2CC(Oc3ccccc3Cl)C2)c1,-4,0.41
CC(=O)NCCNC(=O)c1ccc(N2CCCCC2)cc1,-6,0.96
Oc1cc(CN2CCC(F)(F)CC2)nc2c(F)cccc12,-11,1.48
Cc1cccc(C(=O)N2CCCN(C(=O)CNC(=O)C3CCCC3)CC2)c1,-1,0.08
CCN(CC(=O)N1CCO[C@@H](C)C1)Cc1cccs1,-7,1.06
C[C@H](O)c1onc(-c2cccs2)c1C(=O)NCc1ccccn1,-16,2.01
Cc1cccc2nnc(N3CCN(C(=O)c4ccc(F)cc4)CC3)n12,30,-3.39
CCCN(Cc1nccn1C)C(=O)CN1CCNC1=O,0,0.04
Cc1nc2cc(NC(=O)CCn3cnnn3)ccc2[nH]1,-8,1.07
CC(C)N1CCc2c(C#N)c(NCc3ccccc3)n3cnnc3c2C1,2,-0.26
Cc1cc(C)c(CC(=O)NS(=O)(=O)CC(F)(F)F)c(C)c1,-9,1.5
CC(=O)Nc1cccc(NC(=O)CN2CCS(=O)(=O)CC2(C)C)c1,-13,2.36
CCOC(=O)N1CCN(C(=O)CN2CCC(COCc3ccccc3)CC2)CC1,-3,0.35
C=CCNC(=O)Cc1ccc(CC)cc1,-14,2.21
Cc1nc2cc(NC(=O)[C@H]3CC(=O)N(c4cccc(Br)c4)C3)ccc2o1,-4,0.67
c1nnnn1CCCc1nc(C2CC2)n[nH]1,-11,2.1
CCc1nn(C)c(Cl)c1CN(Cc1ccco1)[C@@H](C)C(C)C,6,-1.05

Structure (SMILES),% Inhibition [%],Z score
O=C1CC(C(=O)Nc2nccs2)N2C(=O)c3ccccc3C2N1 (configuration not stated),-6,0.82
CC(C)C(NC(=O)COc1ccccc1)C(C)C,-6,0.79
Cn1ccc(C2CCN(C(=O)Nc3ccc(=O)n(C)n3)CC2)n1,-13,1.43
CC(=O)C(C(=O)CN(C)c1ccccc1)=C(C)N,6,-0.97
CCC(C)NC(=O)c1coc(CN(Cc2cc(OC)ccc2OC)C(C)c2ccccc2)n1 (configuration not stated),-9,0.82
CCN(c1ccc(NC(=O)COC(=O)[C@H](C)NC2=NS(=O)(=O)c3ccccc32)cc1)C(C)C,-8,1.37
CCc1ccc(CN2C[C@@H]3CC[C@H]2CN(Cc2cccnc2)C3)nc1,-14,1.97
CCc1c(C(=O)N2CC[C@]3(OC)CC[C@@H](OC)C[C@H]23)[nH]c2ccccc12,8,-0.96
Cc1cccc(C)c1NCC(=O)NC1C2CCOC2C12CCC2 (configuration not stated),-7,0.62
O=C(Cc1ccccc1OC(F)F)N[C@H]1CS(=O)(=O)Cc2ccccc21,-3,0.5
CCOCC1CCCN(C(=O)NC(C)CCC2CCCO2)C1 (configuration not stated),-19,3.03
CCOC(=O)c1cnn(-c2nc(-c3ccccc3)cs2)c1CN1CCN(CCO)CC1,-9,1.2
CCCS(=O)(=O)N1CCCc2cc(NS(=O)(=O)CCc3ccc(OC)cc3)ccc21,20,-2.5
CCc1nnc2cc(N3CCN(Cc4cccc5[nH]ccc45)CC3)cnn12,-11,1.37
C[C@@H]1CN(Cc2ccc(OCCCn3ccnc3)cc2)CCN1,7,-1.02
Cc1cc(C(=O)Nc2scc(-c3ccc(C)c(C)c3)c2C(N)=O)no1,-36,3.34
O=C(CCc1c(Cl)cccc1Cl)NCc1cccnc1-c1cccnc1,0,0.01
FC(F)(F)c1cnc(-n2ccc3cccnc32)c(Cl)c1,3,-0.51
Cc1n[nH]c(C)c1CN(C)c1cc([C@H]2CCOC2)ncn1,-9,1.7
NS(=O)(=O)c1ccc(N2CCC[C@@]3(C2)OCc2ccccc23)c(C(=O)O)c1,-14,1.49
